According to PubChem BioAssay AID504332 (National Center for Advancing Translational Sciences (NCATS), 2011):
The whole screen tested about 350,000 compounds, of which about 31,000 (8.9%) were called active. The shares of active, inactive and inconclusive entries below differ from those in the screen. Calls follow the shape of the dose curve; as a rule, active = well fitted inhibition curve with a large enough effect; inconclusive = small, poorly fitted or top-dose-only effect; inactive = no such curve, though single readings can be large or run the other way. Where the call is inconclusive, the potency comes from a doubtful curve fit.

molecular target: Histone-lysine N-methyltransferase EHMT2 (Homo sapiens) (UniProt Q96KQ7); assay: qHTS Assay for Inhibitors of Histone Lysine Methyltransferase G9a; details: G9a H3K9 monomethylation, AlphaScreen, 2 h; activity, negative = inhibition: at 59 µM (top of the series) unless noted; also: nearly all actives have a fitted effect of over 75% in size
Procedure, shortened: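 Quantitative HTS format: methyltransferase activity on a biotin-tagged H3K9 peptide is measured by AlphaScreen, using a rabbit anti-monomethyl-H3K9 antibody with streptavidin donor and anti-IgG acceptor beads. Final levels are 20 nM enzyme, 500 nM peptide, 20 uM SAM; 2 h RT.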
% is scaled to controls: 0 for no effect and ±100 for the full control effect; potency is read from the fitted curve at half-maximal effect; tags tell the direction and shape of the fitted curve.

Chain of UniProt Q96KQ7 (Q96KQ7 whole entry, looked up): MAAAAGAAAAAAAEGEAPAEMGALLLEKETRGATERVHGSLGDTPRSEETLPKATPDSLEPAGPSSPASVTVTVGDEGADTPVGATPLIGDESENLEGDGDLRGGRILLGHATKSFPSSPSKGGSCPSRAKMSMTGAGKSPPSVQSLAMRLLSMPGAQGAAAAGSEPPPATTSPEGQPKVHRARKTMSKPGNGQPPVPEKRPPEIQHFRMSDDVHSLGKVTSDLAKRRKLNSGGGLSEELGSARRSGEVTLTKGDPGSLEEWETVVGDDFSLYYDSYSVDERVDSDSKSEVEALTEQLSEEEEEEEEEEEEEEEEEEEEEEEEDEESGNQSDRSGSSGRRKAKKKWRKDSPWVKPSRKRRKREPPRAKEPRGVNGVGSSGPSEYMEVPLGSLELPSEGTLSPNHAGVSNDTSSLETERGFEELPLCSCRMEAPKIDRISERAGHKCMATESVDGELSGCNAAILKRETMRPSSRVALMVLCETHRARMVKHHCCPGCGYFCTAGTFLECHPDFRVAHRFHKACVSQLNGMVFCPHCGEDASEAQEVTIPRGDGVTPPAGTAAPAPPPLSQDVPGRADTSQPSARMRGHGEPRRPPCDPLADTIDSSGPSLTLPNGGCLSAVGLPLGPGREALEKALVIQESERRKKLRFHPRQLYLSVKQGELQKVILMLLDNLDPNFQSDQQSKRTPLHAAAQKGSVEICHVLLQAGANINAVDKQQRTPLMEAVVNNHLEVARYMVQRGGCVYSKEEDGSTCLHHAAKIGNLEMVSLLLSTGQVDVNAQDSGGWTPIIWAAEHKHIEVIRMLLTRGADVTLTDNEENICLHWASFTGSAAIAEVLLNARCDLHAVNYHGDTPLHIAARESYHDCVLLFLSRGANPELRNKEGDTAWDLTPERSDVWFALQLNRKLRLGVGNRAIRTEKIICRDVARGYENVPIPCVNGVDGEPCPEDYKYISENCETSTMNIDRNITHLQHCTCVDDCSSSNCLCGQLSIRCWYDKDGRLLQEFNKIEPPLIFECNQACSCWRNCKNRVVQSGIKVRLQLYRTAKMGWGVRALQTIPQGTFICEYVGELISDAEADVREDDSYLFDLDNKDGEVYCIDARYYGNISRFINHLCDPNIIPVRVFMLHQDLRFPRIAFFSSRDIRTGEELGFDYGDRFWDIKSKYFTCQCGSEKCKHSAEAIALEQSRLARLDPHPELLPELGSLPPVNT

Compound	activity, negative = inhibition	Potency
COc1ccc(NC(=O)CSc2nnc(NC(=O)Nc3ccccc3)s2)c(OC)c1	inactive: -24.2%	
CCNC(=S)Nc1cccc([N+](=O)[O-])c1		inconclusive: 39.8 µM [inhibitor, single point]
Cc1ccc(/C=C/C(=O)OC(C)C(=O)Nc2ccc(Cl)cn2)o1 (configuration not stated)		inconclusive: 31.6 µM [inhibitor, single point]
c1ccc2c(c1)nc1n2C2(N3CCOCC3)CCCC2C1N1CCOCC1 (configuration not stated)		inconclusive: 39.8 µM [inhibitor, single point]
COc1ccc(Cn2c(=O)[nH]c3cc(C(=O)N4CCN(c5cccc(OC)c5)CC4)ccc3c2=O)cc1	inactive: 2.74%	
CCc1ccc(NC2CC(=O)N(c3ccc(OC)cc3OC)C2=O)cc1 (configuration not stated)	inconclusive: -65.1% [inhibitor]	
CC(=O)N1CCC2(CC1)CCN(c1cccc(-c3ccccc3)c1)CC2	inactive: -5.23% [at 12.7 µM]	
Cc1cccc(NC(=S)N/C(=N/S(=O)(=O)c2ccccc2)c2ccccc2)c1	inconclusive: -60.9% [inhibitor]	
COc1ccc(S(=O)(=O)N2CCOCC2)cc1NC(=O)c1ccc(-n2nc(C)cc2C)cc1	inactive: 14.1% [at 102 µM]	
CC(C)(C)c1ccc(C(=O)NC(Cc2c[nH]c3ccccc23)C(=O)OCC(=O)c2ccccc2)cc1 (configuration not stated)		inconclusive: 31.6 µM [inhibitor, partial curve, poor fit]
Cc1cc(C)cc(NC(=O)N2CCN3CCCCC3C2)c1 (configuration not stated)		inconclusive: 6.31 µM [inhibitor, partial curve, poor fit]
COc1cc(/C=c2\sc3n(c2=O)C(c2ccccc2)C(c2ccccc2)=NN=3)ccc1O (configuration not stated)		inconclusive: 50.1 µM [inhibitor, partial curve]
Cc1ccc(NS(=O)(=O)c2cc([N+](=O)[O-])ccc2NNC(=S)Nc2cccc(Cl)c2)c(C)c1		active: 15.8 µM
CCOC(=O)c1sc(=S)n(-c2ccccc2Cl)c1C		inconclusive: 35.5 µM [inhibitor, partial curve, poor fit]
CN(C)CCCn1c(=O)n(Cc2ccco2)c(=O)c2c3c(sc21)CCCCC3		inconclusive: 44.7 µM [inhibitor, single point]
O=S(=O)([O-])CCC[n+]1c(SCCCS(=O)(=O)O)sc2ccc(Cl)cc21		active: 25.1 µM
COc1ccc(Cc2nnc(SCC(=O)c3cccc([N+](=O)[O-])c3)n2C)cc1		inconclusive: 70.8 µM [inhibitor, single point]
C#CCOCCOCCOCCNc1nc(N2CCOCC2)nc(N2CCN(C(=O)[C@H](Cc3ccc(O)cc3)n3cc([C@@H](N)C(C)CC)nn3)CC2)n1 (some centres not stated)	inconclusive: -68.7% [inhibitor]	
CC(C)(C)C1N=C(c2ccc3ccccc3c2)OC1=O (configuration not stated)	inactive: -28.1% [at 0.501 µM]	
CCOc1ccccc1N1C(=O)CC(Sc2ncccc2C(=O)O)C1=O (configuration not stated)		inconclusive: 50.1 µM [inhibitor, partial curve]
COc1ccc(Nc2cc(C)nc3ncnn23)c(OC)c1		inconclusive: 100 µM [inhibitor, single point]

Compound	activity, negative = inhibition	Potency
Cc1ccc2nc3c(c(Nc4ccc5c(c4)OCCO5)c2c1)CCC3		inconclusive: 39.8 µM [inhibitor, single point]
CC(C)(C)OC(=O)N1CCN(C(=O)c2[nH]cnc2C(=O)NCC(=O)OCc2ccccc2)CC1		active: 70.8 µM
Cc1ccc(N(Cc2cc3ccccc3[nH]c2=O)S(C)(=O)=O)cc1	inactive: 26% [at 102 µM]	
CC(=O)c1sc(NC(=O)c2ccc3c(c2)OCO3)nc1C	inactive: 20.5% [at 0.501 µM]	
COC(=O)/C=C/c1cccc([C@H]2[C@@H]3C=CC[C@@H](C)[C@@H]3C(=O)N2Cc2ccccc2)c1		inconclusive: 0.316 µM [inhibitor, partial curve, poor fit]
Cc1cc(C)c2c(n1)SCCN2C(=O)Nc1ccc(C(=O)Nc2cc(Cl)ccc2C)cc1		inconclusive: 7.08 µM [inhibitor, single point]
Cn1c(=O)n(Cc2ccccc2)c(=O)c2c1nc1n2CCCN1Cc1ccccc1	inactive: 9.13%	
COc1cccc(C(=O)Nc2cc3cc(OC)ccc3oc2=O)c1		inconclusive: 39.8 µM [inhibitor, partial curve, poor fit]
Cc1ccc(NC(=O)CCNCc2ccco2)cc1S(=O)(=O)N(C)C		active: 8.91 µM
Nc1ncccc1OCc1cccc(C(F)(F)F)c1	inactive: -13.9% [at 102 µM]	
Cc1ccc(C(=O)c2cc([N+](=O)[O-])ccc2N2CCCCC2)c(C)c1		inconclusive: 1.26 µM [inhibitor, partial curve, poor fit]
COc1ccc(N=Nc2ccc3ccccc3c2)c(O)c1		active: 10 µM
CCc1ccccc1-n1c(SCC(=O)NC)nnc1-c1cccnc1		inconclusive: 5.62 µM [inhibitor, partial curve, poor fit]
COC(=O)c1cc2sc(Cl)cc2n1Cc1nc(-c2ccc(OC)cc2)oc1C	inactive: -1.42%	
COc1ccc(-n2c(CN3CCN(c4ccc(F)cc4)CC3)nc3ccc([N+](=O)[O-])cc3c2=O)c(OC)c1		inconclusive: 79.4 µM [inhibitor, single point]
O=C1C2C(C(=O)N1/N=C/c1ccc(N3CCCCC3)o1)C1C=CC2C12CC2 (configuration not stated)		inconclusive: 8.91 µM [inhibitor, partial curve, poor fit]
COc1ccc(-c2cnc(SCCNC(=O)c3ccc4c(c3)OCO4)[nH]2)cc1		inconclusive: 50.1 µM [inhibitor, partial curve, poor fit]
CS(=O)(=O)N1CCCC(C(=O)NCCCN2CCc3ccccc3C2)C1 (configuration not stated)		active: 11.2 µM
CCOc1ccccc1NC(=O)CSc1cn[nH]n1		inconclusive: 50.1 µM [inhibitor, partial curve]
Cc1cccn2c(=O)c3cc(C(=O)NCCc4ccccc4)c(=N)n(CCCn4ccnc4)c3nc12		inconclusive: 44.7 µM [inhibitor, partial curve, poor fit]
CC1(c2ccc(OC(F)F)cc2)NC(=O)N(CC(=O)N2CCN(C(=O)c3ccco3)CC2)C1=O (configuration not stated)		inconclusive: 7.08 µM [inhibitor, full curve, poor fit]
